About 540 (0.36%) of roughly 150,000 compounds showed an effect of 50% or more. The list shows a part of the results.
Tested on: Plasmodium falciparum
Test: Primary screen in NF54 nanoGlo assay, in single point, at 2uM, 72h; a lower Z score goes with more inhibition
Assay type: functional, Erythrocyte
Conditions: timepoint 72 hour

SMILES: CCc1ccoc1C(=O)NC[C@H]1Cc2ccccc2CN1
- % Inhibition: -1%
- Z score: 0.1

SMILES: O=C(NS(=O)(=O)N1CCc2ccccc21)c1ccsc1
- % Inhibition: 1%
- Z score: -0.2

SMILES: Cn1cnnc1-c1cncc(NCc2csc(-c3ccccn3)n2)c1
- % Inhibition: -7%
- Z score: 0.79

SMILES: COCC(=O)N[C@H]1[C@H](c2cccs2)N(C(=O)C2CCCCC2)CC[C@@]1(C)O
- % Inhibition: 3%
- Z score: -0.39

SMILES: Cc1ccc(S(=O)(=O)NCCc2csc(-n3cccn3)n2)cc1
- % Inhibition: 0%
- Z score: -0.05

SMILES: COc1cc(C2(C(=O)Nc3ncnn3C(C)C)CCC2)ccc1C
- % Inhibition: -2%
- Z score: 0.41

SMILES: COc1cccc(N2CCN(C(=O)[C@H]3CCCN(c4nccc5sc(C)cc45)C3)CC2)c1
- % Inhibition: 0%
- Z score: -0.03

SMILES: CC1(C)CCc2nnc(-c3ccoc3)n2C1
- % Inhibition: -9%
- Z score: 1.67

SMILES: CN(Cc1ccccc1)C(=O)Cc1cn(C)c2ncccc12
- % Inhibition: -7%
- Z score: 0.76

SMILES: CCN1CCCC(CNC(=O)N2CCC(OCC(C)C)C2)C1 (centres undefined)
- % Inhibition: -6%
- Z score: 0.88

SMILES: Cc1c(C#N)nn(-c2ccccc2)c1NC(=O)CS(=O)(=O)C(C)C
- % Inhibition: -4%
- Z score: 0.51

SMILES: CCCC1C(c2ccccc2)NC(c2ccccc2)CC1(O)C#Cc1ccccc1 (centres undefined)
- % Inhibition: -8%
- Z score: 1.02

SMILES: COc1ccc2oc(CNC(=O)N(CCN(C)C)Cc3ccsc3)nc2c1
- % Inhibition: -15%
- Z score: 1.59

SMILES: COc1ccccc1N(CN1CCCC1=O)C(=O)c1ccc(F)cc1
- % Inhibition: -3%
- Z score: 0.56

SMILES: O=C(NCCc1c[nH]c2ccccc12)c1coc(Cn2cnc3ccccc32)n1
- % Inhibition: -15%
- Z score: 2.18

SMILES: COCCc1nc(-c2ccc3[nH]nnc3c2)n([C@H]2CCS(=O)(=O)C2)n1
- % Inhibition: -6%
- Z score: 0.71

SMILES: COc1nc(N2[C@@H]3CC[C@H]2C[C@@H](OC)C3)ncc1F
- % Inhibition: 23%
- Z score: -4.8

SMILES: CC(C)CC(=O)NCc1nnc(C(=O)Nc2cccc(F)c2)s1
- % Inhibition: 14%
- Z score: -1.65

SMILES: Cc1n[nH]c(C)c1-c1cnc2nnc(C)n2c1
- % Inhibition: -6%
- Z score: 1.12

SMILES: Cc1nc([C@H](C)NC(=O)CCCn2cccn2)n[nH]1
- % Inhibition: -11%
- Z score: 1.53

SMILES: COC1(CNc2cccc(C)n2)CCOCC1
- % Inhibition: 9%
- Z score: -1.69

SMILES: COc1cccc(NC(=O)Cn2nc3n(c2=O)CCN(Cc2ccccc2F)C3=O)c1
- % Inhibition: -11%
- Z score: 1.26

SMILES: COCCC1(CNS(=O)(=O)CCN2CCOC2=O)CCCC1
- % Inhibition: -4%
- Z score: 0.72

SMILES: O=C(NCCc1ncc[nH]1)c1ccc2c(Br)cccc2c1
- % Inhibition: -12%
- Z score: 1.52

SMILES: Cc1cc(C(=O)N[C@@H](CO)c2sccc2C)cc(C)n1
- % Inhibition: -3%
- Z score: 0.51

SMILES: CC(CNC(=O)N1CCOC(C)C1)CN(C)C(=O)OC(C)(C)C (centres undefined)
- % Inhibition: -12%
- Z score: 1.25

SMILES: O=C(Cc1cccs1)N[C@H]1CCc2ccccc21
- % Inhibition: 3%
- Z score: -0.46

SMILES: COC(=O)[C@@H]1C[C@H](O)CCN1C(=O)c1c(C)cccc1OC
- % Inhibition: -12%
- Z score: 2.04

SMILES: COc1cccc(CC(C)(C)NS(=O)(=O)CC2(C#N)CC2)c1
- % Inhibition: -8%
- Z score: 0.77

SMILES: Cc1cccc(Oc2nc3ccccc3nc2N2CCCCCC2)c1C
- % Inhibition: -8%
- Z score: 0.96

SMILES: NC(=O)c1ccc(N2CCN(C(=O)C[C@H]3CCc4ccccc4C3)CC2)cc1
- % Inhibition: -2%
- Z score: 0.22

SMILES: Cc1cccc(C(=O)N[C@H]2CCO[C@H](c3ccccn3)C2)c1C
- % Inhibition: -4%
- Z score: 0.55

SMILES: Cc1cnc(COc2cc(Br)cc(F)c2F)o1
- % Inhibition: -8%
- Z score: 0.84

SMILES: CCn1ccc(C(=O)N2CCN(Cc3ccco3)[C@@H]3CS(=O)(=O)C[C@@H]32)n1
- % Inhibition: -24%
- Z score: 2.4

SMILES: Cc1ccc(-c2nc(CC[C@H]3CCCO3)n(CC(F)(F)F)n2)o1
- % Inhibition: -10%
- Z score: 1.88

SMILES: COc1ccc(C(=O)N2CC(F)(F)C[C@H]2COc2ccc3c(c2)CCC3)cn1
- % Inhibition: -6%
- Z score: 1.05

SMILES: CCc1nccn1[C@H]1CCCN(c2cccc(C(=O)O)n2)C1
- % Inhibition: -5%
- Z score: 0.96

SMILES: O=C(Nc1nnc(-c2ccoc2)[nH]1)c1ncccc1Br
- % Inhibition: -2%
- Z score: 0.22

SMILES: CCCN(CC(C)(C)O)S(=O)(=O)C1CC1
- % Inhibition: 0%
- Z score: -0.07

SMILES: CC1CCN([C@H](NC(=O)c2ccco2)C(=O)c2ccccc2)CC1
- % Inhibition: -13%
- Z score: 2.02

SMILES: CCC(CC)C(=O)N1CCC(NC(=O)Nc2ccc(OC)c(N3CCCC3=O)c2)CC1
- % Inhibition: -15%
- Z score: 1.5

SMILES: COc1ccccc1CC(=O)NCc1ccccc1CN1CCC(C)CC1
- % Inhibition: -2%
- Z score: 0.36

SMILES: Cc1ccc(NC(=O)C[C@@H]2NC(=O)NC2=O)cc1OCC(F)F
- % Inhibition: -12%
- Z score: 2.22

SMILES: O=C(c1ccc(Br)o1)N1CC(S(=O)(=O)Cc2ccco2)C1
- % Inhibition: -23%
- Z score: 2.96

SMILES: COc1ccc2c(c1)N1CCN(CC(=O)N3CCOCC3)CC1C(C(=O)N1CCN(C(C)=O)CC1)C2 (centres undefined)
- % Inhibition: -1%
- Z score: 0.14

SMILES: c1cc(CN2CCN(C3CCCCCC3)CC2)ccn1
- % Inhibition (2 µM): -11%

SMILES: CC(C)n1ccc(CN2C(=O)N[C@@H](Cc3cc(Cl)cc(Cl)c3)C2=O)n1
- % Inhibition: -5%
- Z score: 0.62

SMILES: Cc1cccc2nc(NC[C@]3(c4nccn4C)NC(=O)NC3=O)oc12
- % Inhibition: -1%
- Z score: 0.08

SMILES: O=C(Nc1ccon1)c1cc(-c2ccccc2Cl)nc2ccccc12
- % Inhibition: 3%
- Z score: -0.39

SMILES: Cc1ccccc1C1CC(NC[C@](C)(O)CN2CCOCC2)C1 (some centres undefined)
- % Inhibition: -8%
- Z score: 1.19

SMILES: CC(C)[C@H]1CCO[C@H]1C(=O)NCc1cn(C)nc1C(F)(F)F
- % Inhibition: -7%
- Z score: 0.76

SMILES: Cc1c(O)cccc1C(=O)NCCCCN1CCCCCC1
- % Inhibition: 5%
- Z score: -0.67

SMILES: c1nc2c(cc1-c1nc([C@H]3CCOC3)no1)CCCC2
- % Inhibition: -7%
- Z score: 0.95

SMILES: O=C(NCc1nc(-c2ccc[nH]c2=O)no1)c1ccno1
- % Inhibition: -15%
- Z score: 2.62

SMILES: O=C(Nc1ccccc1N1CCCC1)C1CCN(S(=O)(=O)c2ccc(Cl)cc2)CC1
- % Inhibition: 3%
- Z score: -0.25

SMILES: O=S(=O)(Cc1ccccc1)Nc1ccnn1Cc1cccnc1
- % Inhibition: -5%
- Z score: 0.5

SMILES: Cc1nsc2ncc(C(=O)N3CCC(C)CC3)c(N3CCC(C(=O)Nc4cc(F)ccc4F)CC3)c12
- % Inhibition: 60%
- Z score: -4.06

SMILES: Cc1noc(C)c1CCC(=O)NC1CC(O)C(CO)C1 (centres undefined)
- % Inhibition: -10%
- Z score: 1.51

SMILES: CC[C@H](C)NC(=O)Cc1cccc(N)c1
- % Inhibition: 9%
- Z score: -1.64

SMILES: CCOc1ccc(-c2nc(CN3C(=O)c4ccccc4CS3(=O)=O)cs2)cc1OC
- % Inhibition: -10%
- Z score: 1.36

SMILES: COc1ccc(N2C(=O)CN(C(=O)c3ccccc3)CC23CCCC3)cc1
- % Inhibition: 9%
- Z score: -1.3

SMILES: COc1ccc(CN2CC[C@@]3(CCCN(C4CCCCC4)C3=O)C2)cc1O
- % Inhibition: -7%
- Z score: 1.12

SMILES: O=C(c1ccoc1)N1CCC(S(=O)(=O)N2CCCCC2)CC1
- % Inhibition: -14%
- Z score: 1.49

SMILES: CCC(=O)NCCNC(=O)c1ccco1
- % Inhibition: 35%
- Z score: -0.69

SMILES: CC(C)CCNC(=O)c1c(OCC2CC2)cc(=O)n2c1CCOCC2
- % Inhibition: -7%
- Z score: 0.87

SMILES: Cc1cc(C)nc(CNC(=O)Nc2cc(S(C)(=O)=O)ccc2C)n1
- % Inhibition: 1%
- Z score: -0.11

SMILES: Cc1ccccc1C1(CNC(=O)N(C)Cc2ccccc2O)CCOCC1
- % Inhibition: 0%
- Z score: 0.04

SMILES: CCCn1cc(S(=O)(=O)NCCc2noc(C(C)C)n2)cn1
- % Inhibition: -4%
- Z score: 0.81

SMILES: CCC(=O)Nc1ccc(N2CCN(C(=O)c3cccc(F)c3)CC2)c(C(=O)N2CCCCC2)c1
- % Inhibition: -5%
- Z score: 0.5

SMILES: CCc1cccc(-n2nnnc2N2CCN(C(=O)Nc3cccc(Br)c3)CC2)c1
- % Inhibition: -4%
- Z score: 0.64

SMILES: CC(C)Cn1c(C[C@H]2CCN(C(=O)C(C)(C)C)C2)nc2cccnc21
- % Inhibition: -13%
- Z score: 1.62

SMILES: Cc1cccc(NC(=O)CN(C)Cc2cc(Cl)cc3c2OCOC3)c1C
- % Inhibition: 6%
- Z score: -0.83

SMILES: CC(C)Cn1cc(NC(=O)N2Cc3ccccc3N(C)C[C@@H]2C)c(C(F)F)n1
- % Inhibition: -1%
- Z score: 0.09

SMILES: COc1ccc(CC(=O)N2CCN(c3nc4c(s3)c(C)nn4-c3ccc(OC)cc3)CC2)cc1
- % Inhibition: 13%
- Z score: -2.36

SMILES: O=C(CN1CCCCCC1)N1CC=C(n2c(=O)[nH]c3ccccc32)CC1
- % Inhibition: -4%
- Z score: 0.56

SMILES: CCC(C)(C)NC(=O)Cn1c(C)ccc(NS(=O)(=O)c2ccc(C)cc2)c1=O
- % Inhibition: -4%
- Z score: 0.69

SMILES: Cc1c(C(=O)NCCc2cnn(-c3ccccc3)c2)oc2c1C(=O)CC(C)(C)C2
- % Inhibition: -15%
- Z score: 2.81

SMILES: CC(CCS(C)(=O)=O)NC(C)c1cc2ccccc2s1 (centres undefined)
- % Inhibition: 6%
- Z score: -1.21

SMILES: CN(C(=O)OC(C)(C)C)C1CCN(C(=O)NC2CCOCC2)CC1
- % Inhibition: -8%
- Z score: 1.1

SMILES: CCc1c(C)nn(CC(=O)N(C)[C@@H](C)c2nc(C)sc2C)c1C
- % Inhibition: 2%
- Z score: -0.36

SMILES: COC(=O)C[C@H](NC(=O)c1cc(OC)ns1)c1ccncc1
- % Inhibition: 5%
- Z score: -0.6

SMILES: Cc1c(C#N)c2nc3c(c(-c4ccccc4)c2n1-c1ccccc1)CCCC3
- % Inhibition: -16%
- Z score: 3.01

SMILES: COC(=O)Nc1ccc(NCc2c[nH]nc2-c2cccnc2)cc1F
- % Inhibition: -2%
- Z score: 0.25

SMILES: Cc1ccc(-c2nc3ccc(-c4cc5ccccc5s4)cn3c2CCC(=O)N2CCOCC2)cc1
- % Inhibition: -18%
- Z score: 2.17

SMILES: CN1c2cc(Cl)ccc2C(=O)NC12CCN(C(=O)Nc1ccc3c(c1)OCCO3)CC2
- % Inhibition: -8%
- Z score: 1.05

— ChEMBL document CHEMBL4888484, “Replenishing the malaria drug discovery pipeline: Screening and hit evaluation of the MMV Hit Generation Library 1 (HGL1) against asexual blood stage Plasmodium falciparum ,using a nano luciferase reporter read-out” (2022)
